Out of some 110,000 compounds screened, about 230 (0.21%) showed an effect of 50% or more. This is one part of the list.
target: DPAP1 (Plasmodium falciparum, UniProt Q8IIJ9); assay: primary screen, percent inhibition; read by cleavage of a fluorogenic dipeptide substrate; higher = more effect of the substance; parameters: species or system P. falciparum D10 trophozoite lysates; single well
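Note: 30 min substrate incubation versus DMSO and 10 µM JCP410 controls.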

DPAP1, sequence (Q8IIJ9 whole entry, looked up): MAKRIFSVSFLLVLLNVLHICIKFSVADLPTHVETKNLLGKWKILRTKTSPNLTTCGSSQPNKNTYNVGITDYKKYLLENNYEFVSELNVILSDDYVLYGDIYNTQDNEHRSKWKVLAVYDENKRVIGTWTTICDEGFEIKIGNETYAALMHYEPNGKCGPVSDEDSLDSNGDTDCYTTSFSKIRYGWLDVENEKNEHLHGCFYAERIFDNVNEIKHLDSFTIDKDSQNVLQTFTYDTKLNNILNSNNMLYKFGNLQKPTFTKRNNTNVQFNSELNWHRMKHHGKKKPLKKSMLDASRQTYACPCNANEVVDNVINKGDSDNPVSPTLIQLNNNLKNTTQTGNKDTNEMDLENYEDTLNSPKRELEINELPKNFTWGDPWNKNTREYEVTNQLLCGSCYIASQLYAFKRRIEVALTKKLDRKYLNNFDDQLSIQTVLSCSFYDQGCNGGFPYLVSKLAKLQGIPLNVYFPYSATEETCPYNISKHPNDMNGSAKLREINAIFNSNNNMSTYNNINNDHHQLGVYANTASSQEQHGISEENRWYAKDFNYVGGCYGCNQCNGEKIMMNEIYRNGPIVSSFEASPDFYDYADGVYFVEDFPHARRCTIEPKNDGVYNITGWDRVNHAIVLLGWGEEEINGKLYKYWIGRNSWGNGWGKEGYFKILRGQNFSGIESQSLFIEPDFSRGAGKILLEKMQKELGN

SMILES	% Inhibition @ 10 uM
C=CCc1ccccc1OCCOc1c(Cl)cc(/C=C2/C(=N)N3OC(C)=CC3=NC2=O)cc1OC	5.21%
COc1ccc(C(=O)Nc2ccc(S(=O)(=O)NC(C)=O)cc2)cc1OC	-5.85%
CSc1nc(C)cc(OCC(=O)N2CCOCC2)n1	-7.71%
Cc1nc2sccn2c(=O)c1S(=O)(=O)NCc1ccccc1Cl	-3.44%
O=c1c2cn[nH]c2[nH]c(=S)n1-c1cccc2ccccc12	31.4%
CC1(C)CC(=O)C2=C(C1)c1c(ccc3ccccc13)NC2c1ccc(O)cc1 (centres unmarked)	13.8%
Cc1ccc(N2C(=O)c3ccc(C(=O)O)cc3C2=O)cc1Cl	-1.95%
CS(=O)(=O)N(CC(=O)Nc1cccc(C(F)(F)F)c1)c1ccc(Cl)cc1	-7.2%
CC1CN(S(=O)(=O)c2ccc(-n3cnnn3)cc2)CC(C)O1 (centres unmarked)	5.43%
Cc1cc(Br)cc2c1[nH]c1nc3ccccc3nc12	-0.403%
O=C(Nc1ccc(Oc2ccccc2)cc1)C1CCCO1 (centres unmarked)	0.812%
O=C(CSc1nnc2c(n1)[nH]c1ccccc12)Nc1nccs1	-10.6%
C/C(=N\C1CC(C)(C)NC(C)(C)C1)c1c(C(F)(F)F)nn(-c2nc3ccccc3s2)c1O	2.94%
Cc1nn(CCCC(=O)NC2CCN(Cc3ccccc3)CC2)c(=O)c2c1sc1ccccc12	-5.1%
Cc1nn(Cc2noc(C(=O)NCC(O)c3ccccc3)n2)c(C)c1Br (centres unmarked)	7.16%
COc1ccc(-c2c(O)c(C#N)c(-c3ccccc3)n(-c3ccc(OC)cc3)c2=O)cc1	-0.25%
CCOc1ccccc1N(CC(=O)N1CCN(c2ccccc2)CC1)S(C)(=O)=O	-0.496%
COc1cccc(OC)c1C(=O)Nc1cc(Cl)cc(Cl)c1	0.273%
COc1cc(NC(=O)C2CC(=O)N(c3ccc(F)cc3)C2)ccc1Br (centres unmarked)	-1.22%
CC1CCCCN1S(=O)(=O)c1ccc(C(=O)Nc2cccc(Cl)c2)cc1 (centres unmarked)	0.992%
CCO/C(O)=C1/C(C)=Nc2ncnn2C1c1ccccc1OCC (centres unmarked)	0.0842%
CCOC(=O)c1c(NC(=O)c2cccnc2)sc2c1CCC(C(C)(C)C)C2 (centres unmarked)	-5.08%
NC1C2CN3CCN(C2)CC1(Cc1ccccc1)C3 (centres unmarked)	-5.46%
COc1cc(NS(=O)(=O)c2ccc(NC(=O)c3ccccc3C)cc2)nc(OC)n1	1.72%
Cc1cc(O)nc(SCC(=O)Nc2cc(Cl)ccc2C)n1	5.84%
Cc1cccc(NC(=O)CSc2nc(-c3cccs3)cc(C(F)(F)F)c2C#N)n1	18.3%

SMILES	% Inhibition @ 10 uM
COc1ccccc1C(=O)Nc1c(C)nn(Cc2ccc(C)cc2)c1C	-10.5%
O=C(CCc1nnc2n(Cc3ccccc3)c(=O)c3ccccc3n12)N1CCN(c2ccccn2)CC1	-0.692%
O=c1c2nnn(Cc3ccccc3F)c2ncn1Cc1cccc(F)c1	-7.71%
Cc1nc(NC(=O)c2cccc(OC(C)C)c2)ccc1Br	3.81%
COc1ccccc1CN1C(=O)c2cccc(N)c2C1=O	-1.57%
CCn1ncc(C(=O)Nc2ccc(C)cc2C)c1C	2.79%
Cc1cc(C)n(-c2cc(-c3ccccc3)nc(-c3ccccc3)n2)n1	-2.35%
COc1cc(S(=O)(=O)N2CCCCC2)ccc1/N=C/c1c(C)nn(-c2ccc(C)c(C)c2)c1O	1.02%
CC(C)C(=O)Nc1scc(-c2ccccc2)c1C(=O)O	-3.98%
COc1ccc(OC)c(NC(=O)c2ccc(CSc3ncnc4[nH]cnc34)cc2)c1	2.5%
Cc1ccc(CN2CCCC(O)C2)c(C)c1 (centres unmarked)	-1.93%
O=C(CCCOc1ccc(Cl)cc1Cl)NC1CCCC1	0.815%
O=C(CCCn1c(=O)c2cccn2c2cccnc21)NC1CCN(Cc2ccccc2)CC1	2.03%
Cc1ccc(CCNC(=O)c2nnc(-c3cccnc3)o2)cc1	3.5%
Cc1sc(NC(=O)CSc2nnc3c4ccccc4n(C)c3n2)nc1-c1ccccc1	-3.87%
Cc1ccc(C2C(=O)c3ccccc3C2=O)cc1	-3.38%
COc1ccc(C2C(=O)N(C3CCCCC3)CC(=O)N2CC2COc3ccccc3O2)cc1 (centres unmarked)	-2.26%
N#CC1=C(N)Oc2ccc3ccccc3c2C1c1cccc(F)c1 (centres unmarked)	-0.294%
CN(C)CCN(C)Cc1cccc(Br)c1	0.526%
C=CCSc1nc2nc3c(cc2c(=O)n1CC=C)CC(C)(C)OC3	-2.37%
NC(=O)c1c(NC(=O)Nc2ccccc2)sc2c1CCCCCC2	9.97%
CCCN(CCC)S(=O)(=O)c1ccc(NC(=O)C2CCCCC2)cc1	-1.63%
N#C/C(=C\c1ccc(-c2cccc(C(=O)O)c2)o1)c1nc2ccccc2[nH]1	35%
CC(=O)c1ccc(NC(=O)c2ccc(Br)o2)cc1	-4.15%
CCCN1CCC2(CC1)NC(C(=O)O)Cc1c2[nH]c2ccccc12 (centres unmarked)	5.03%
NC1=NC(=O)/C(=C\c2ccccc2Br)S1	-1.85%

SMILES	% Inhibition @ 10 uM
CCOC(=O)c1nccn1Cc1ccccc1Cl	0.0198%
Cc1cc2ccccc2n1CCNC(=O)c1ccc(-c2ccccc2)cc1	4.78%
Cc1cccc(-n2ncc3c2ncn2nc(-c4ccccc4Cl)nc32)c1	-0.386%
CC(C)c1ccc(S(=O)(=O)c2cnc3ccc(Cl)cc3c2O)cc1	-9.07%
CC(C)C1=C2CCCCC2NC(=O)N1 (centres unmarked)	-2.51%
Cn1c(-c2ccc(C#N)cc2)nc2ccccc21	5.55%
CS(=O)(=O)N(CC(=O)N1CCN(c2ccc(F)cc2)CC1)c1ccc(Cl)c(C(F)(F)F)c1	1.62%
CCCOc1ccc(C(=O)Nc2c(NC)c3ccccc3oc2=O)cc1	-2.3%
O=c1c(Cl)c(N2CCN(c3ccccn3)CC2)cnn1-c1nc2ccccc2o1	-0.999%
CN(CC(=O)NCc1ccccn1)S(=O)(=O)c1cccc2nsnc12	0.317%
COCc1cc(C)nc2sc3c(c12)NC(c1ccco1)n1c-3nc2ccccc21 (centres unmarked)	-4.49%
O=C(Cn1cnc2onc(-c3ccc(F)cc3)c2c1=O)NC1CCN(Cc2ccccc2)CC1	4.88%
Cc1ccccc1N1CCN(CC#N)CC1	1.64%
CCOC(=O)c1c(-c2ccc(C)cc2)csc1N	8.16%
Cc1cc(C)cc(NC(=O)c2ccc(Cl)cc2)c1	5.56%
O=C(CSc1nc2ccc(NC(=O)c3ccccc3F)cc2s1)NCC1CCCO1 (centres unmarked)	3.65%
CN1CCN(CCc2nnc(S)n2-c2ccc(C(F)(F)F)cc2)CC1	5.69%
CN1C(=O)CC(c2cn(Cc3ccccc3)c3ccccc23)C1=O (centres unmarked)	-7.35%
Cc1cc(C)cc(NS(=O)(=O)Cc2ccccc2)c1	-0.582%
Cc1nn(C)c(C)c1NS(=O)(=O)c1ccccc1	0.414%
O=C(O)c1ccc(-n2nc(C(F)(F)F)c3c2CCCC3)cc1	-5.49%
CCOc1ccc(-c2nn3c(Cc4ccccc4)nnc3s2)cc1	4.96%
CC(C)C[C@H](NC(=O)c1cccc(C(=O)N2CCN(C)CC2)c1)C(=O)NCC#N	-5.64%
Cc1nn(Cc2cccc(C(=O)Nc3nccs3)c2)c(C)c1Br	-8.16%
CC(C)C[C@H](NC(=O)c1ccc(-c2ccoc2)cc1)C(=O)NCC#N	-1.41%
COc1cc(CN2CCc3c([nH]c4ccccc34)C2)cc2c1OCO2	-5.11%

SMILES	% Inhibition @ 10 uM
CCOc1ccc(C(=O)C[n+]2ccc(C(=O)NCCO)cc2)cc1	-3.69%
Cc1oc2ncn(C)c(=O)c2c1C(=O)NCCCN1CCOCC1	-3.95%
Fc1ccccc1CN1CCN(Cc2ccccc2)CC1	1.63%
CCOc1cc(-c2nc(-c3ccc(C)nc3OC)no2)cc(OCC)c1OCC	-3.13%
CCOC(=O)c1cnc2ccc(OCC)cc2c1N1CCN(C)CC1	-4.93%
CC1(C)CC(=O)C(/C=N/C(CC(=O)O)C(=O)O)=C(O)C1 (centres unmarked)	2.17%
Cc1ccc2c(CN3CCN(C(=O)CCc4ccccc4)CC3)cc(=O)oc2c1	-2.84%
CN1CCN(C(=O)CSc2nc3ccc(N4C(=O)c5ccccc5C4=O)cc3s2)CC1	-0.25%
Cc1ccc(C)c(NC(=O)Cc2ccccc2)c1	2.46%
COc1ccc2[nH]c(SCCOc3ccc(F)cc3)nc2c1	-6.36%
O=C(O)c1cccc(NC(=O)c2ccc(Br)c(S(=O)(=O)N3CCCCC3)c2)c1	2.73%
CCS(=O)(=O)NCc1csc(C)n1	-6.33%
CC[n+]1cn(CC(O)COc2ccc(OC)cc2)c2ccccc21 (centres unmarked)	-1.6%
O=C1O[C@@H]2C[C@H]3C[C@@H]2[C@@H]1[C@H]3C(=O)N1CC=C(c2ccccc2)CC1	2.21%
CN(CC(=O)NCCc1ccccc1)S(=O)(=O)c1ccc(F)cc1	1.03%
COc1ccc(C2C=C(c3cccnc3)Nc3ncnn32)c(OC)c1OC (centres unmarked)	5.01%
CC(C)=CCC/C(C)=C/CN1CCN(C/C=C/c2ccccc2)CC1	0.0792%
O=C(NC1CCCc2ccccc21)C1CCN(S(=O)(=O)c2cccc3cccnc23)CC1 (centres unmarked)	3.53%
CCOc1ccc(C2CC(=O)Nc3c2c(C)nn3-c2nc3ccccc3s2)cc1OC (centres unmarked)	-2.88%
Fc1ccccc1CN1CCC(N2CCCCC2)CC1	3.15%
COc1cccc(Cn2c(C)c(CNCc3cccnc3)c(C(=O)O)c2C)c1	-5.49%
Clc1cccc(N2CCN(C3CC4CCC3C4)CC2)c1 (centres unmarked)	-1.15%
CCOc1ccc(C2C(C(=O)OC)=C(C)N=c3s/c(=C\c4ccccn4)c(=O)n32)cc1OCC (centres unmarked)	1.91%

Reference: article PMC6919601, “Identification of Plasmodium dipeptidyl aminopeptidase allosteric inhibitors by high throughput screening” (PLoS ONE, 2019)
